Results taken from PubChem BioAssay AID686971 (National Center for Advancing Translational Sciences (NCATS), 2013).
The whole screen tested about 360,000 compounds, of which about 7,500 (2.1%) were called active. This list was built around the results that the source calls inconclusive (neither active nor inactive); the mix of calls is not that of the screen. Calls come from the whole dose curve; as a rule, active = well fitted cell-killing curve with a large enough effect; inconclusive = small, poorly fitted or top-dose-only effect, or effect the other way, or another doubt; inactive = no such curve, though single readings can be large or run the other way. Potencies of inconclusive entries are left out as doubtful fits.

Test: qHTS for induction of synthetic lethality in tumor cells producing 2HG: qHTS for the HT-1080-IDH1KD cell line;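 for activity, negative = toxicity: 0% = DMSO wells and -100% = cell-free medium wells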
Conditions: HT-1080 IDH1 knockdown viability, ATP luminescence, 48 h; activity, negative = toxicity: at 46.1 µM (top of the series) unless noted
How it was run: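 Luminescent ATP read-out (CellTiter-Glo, 10 min at room temperature) after 48 h compound exposure at 37 °C gave viability of IDH1-knockdown HT-1080 cells. Activity was normalised to DMSO and cell-free wells, then fitted as concentration-response curves.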
Potency is the fitted concentration of half-maximal effect; tags give direction and shape of the fitted curve.

**Q.** With `CC(C)[C@H](NC(N)=O)C(=O)Nc1ccc(Oc2ccccc2)cc1` as the compound, how does the activity, negative = toxicity read?
**A.** inconclusive: -7.58% [cytotoxic]

**Q.** With `Cc1c(N=Cc2ccc(Cl)o2)c(=O)n(-c2ccccc2)n1C` as the compound, how does the Potency read?
**A.** inconclusive [rising, partial curve]

**Q.** For `CC(C)C[C@H](CO)N(Cc1ccccc1)S(=O)(=O)N(Cc1ccccc1)[C@@H](CO)CC(C)C`, which Potency is on record?
**A.** inconclusive [cytotoxic, single point]

**Q.** With `C=CC[C@@H](CC(=O)N[C@@H](CO)Cc1ccccc1)C(=O)N[C@H](COC(=O)[C@H](CC=C)CC(=O)OC(C)(C)C)Cc1c[nH]c2ccccc12` as the compound, how does the “activity, negative = toxicity” value read?
**A.** inactive: -28.8%

**Q.** Which Potency does the source give for `COc1cc(NCCCCC(C)N)c2nccc(C)c2c1` (stereo not given) here?
**A.** inconclusive [cytotoxic, partial curve]

**Q.** Which Potency does the source give for `COc1ccc(NC(=O)CS(=O)c2ccccc2Cl)cc1` (stereo not given) here?
**A.** inconclusive [rising, single point]

**Q.** For `CCn1c(NC(=O)c2ccccc2)nc2ccccc21`, which Potency is on record?
**A.** inconclusive [cytotoxic, single point]

**Q.** Which Potency does the source give for `CN(C)CCCN(C(=O)c1ccc(S(=O)(=O)N2CCCCCC2)cc1)c1nc2ccc(Br)cc2s1` here?
**A.** active: 16.4 µM

**Q.** With `COc1ccc(/C=N/NC(=O)c2cccnc2)cc1COc1ccc([N+](=O)[O-])cc1` as the compound, how does the Potency read?
**A.** active: 6.51 µM

**Q.** Which Potency does the source give for `O=C(O)c1ccc(N/N=C/C(Br)=C/c2ccccc2)cc1` here?
**A.** inconclusive [cytotoxic, partial curve]

**Q.** With `O=C(Cc1ccc([N+](=O)[O-])cc1)N1N=C2CCCCC2C1(O)C(F)(F)F` (stereo not given) as the compound, how does the “activity, negative = toxicity” value read?
**A.** inactive: 2.19%

**Q.** For `CCCCCN(C(=O)CCC(=O)OCC(=O)c1ccc(C(C)CC)cc1)c1c(N)n(CCCC)c(=O)[nH]c1=O` (stereo not given), which “activity, negative = toxicity” value is on record?
**A.** inactive: -14.5%

**Q.** Which “activity, negative = toxicity” value does the source give for `Cc1cccc(NC(=O)CSc2ncnc3sc(C)c(C)c23)n1` here?
**A.** inactive: -12.9%

**Q.** With `Cc1ccc(C)c(NC(=S)NC(NC(=O)/C=C/c2ccccc2)C(Cl)(Cl)Cl)c1` (stereo not given) as the compound, how does the activity, negative = toxicity read?
**A.** inconclusive: -34.2% [cytotoxic]

**Q.** Which “activity, negative = toxicity” value does the source give for `Cc1ccc(CCNC(=O)C2CCC(=O)N(Cc3ccccc3F)C2)o1` (stereo not given) here?
**A.** inactive: -6.37%

**Q.** Which Potency does the source give for `O=C(O)c1ccccc1C(=O)c1ccc(Br)s1` here?
**A.** inconclusive [rising, single point]

**Q.** With `CC(OC(=O)CCNS(=O)(=O)c1ccccc1)C(=O)Nc1ccc(S(=O)(=O)N2CCCCC2)cc1` (stereo not given) as the compound, how does the activity, negative = toxicity read?
**A.** inconclusive: 0.787%

**Q.** For `CCCCN(CCCNC(=O)c1ccc2c(c1)NC(=O)CN2C)c1ccccc1`, which Potency is on record?
**A.** inconclusive [cytotoxic, single point]

**Q.** For `CCOCCCNC(=O)Cn1nc(Cc2ccncc2)c2ccccc2c1=O`, which “activity, negative = toxicity” value is on record?
**A.** inactive: 9.64%

**Q.** With `O=C(N/N=C/c1cc([N+](=O)[O-])ccc1O)Nc1ccccc1` as the compound, how does the Potency read?
**A.** active: 16.4 µM

**Q.** With `O=C1NC[C@H](Cc2ccccc2)N(C[C@@H]2CCCN2C[C@H](Cc2ccccc2)N2C[C@H](Cc3ccc(O)cc3)N(CCc3ccccc3)C(=O)C2=O)C1=O` as the compound, how does the Potency read?
**A.** inconclusive [cytotoxic, single point]

**Q.** Which Potency does the source give for `O=C(N/N=C/c1cccc([N+](=O)[O-])c1)c1cc2ccccc2o1` here?
**A.** inconclusive [rising, single point]

**Q.** With `Cc1cc(F)ccc1-c1cc(C(=O)NCc2cccc(C(F)(F)F)c2)[nH]n1` as the compound, how does the activity, negative = toxicity read?
**A.** inconclusive: -30.3% [cytotoxic]

**Q.** With `CCOC(=O)c1c(-c2ccccc2)nc2cc(C)ccn12` as the compound, how does the activity, negative = toxicity read?
**A.** inconclusive: 2.67%

**Q.** Which Potency does the source give for `CC(=O)C1CCC2C3CC=C4CC(SC(=N)N)CCC4(C)C3CCC12C` (stereo not given) here?
**A.** inconclusive [cytotoxic, single point]

**Q.** With `Brc1ccc(-c2csc(-c3c[nH]c4ccccc34)n2)cc1` as the compound, how does the Potency read?
**A.** inconclusive [cytotoxic, single point]

**Q.** With `CC(=O)Nc1ccc(C(=O)COC(=O)c2cccs2)c(F)c1` as the compound, how does the “activity, negative = toxicity” value read?
**A.** inactive: -4.08%

**Q.** For `COc1cc(C(=O)OCC(=O)c2cc(C)n(C)c2C)cc(OC)c1OC`, which Potency is on record?
**A.** inconclusive [cytotoxic, single point]

**Q.** For `O=C(c1cc2ccccc2oc1=O)N(Cc1cccs1)CC1CCCO1` (stereo not given), which “activity, negative = toxicity” value is on record?
**A.** inactive: 24.2%

**Q.** For `O=C(Nc1ccc2c(c1)OCCO2)C(CCc1ccccc1)N1CCN(C/C=C/c2ccccc2)CC1` (stereo not given), which Potency is on record?
**A.** inconclusive [cytotoxic, single point]

**Q.** With `CCCCCCNCC(=O)N1CCC(Cc2ccccc2)CC1` as the compound, how does the activity, negative = toxicity read?
**A.** inconclusive: -30.6% [cytotoxic]

**Q.** For `Cc1ccc(NC(=O)CC2S/C(=N/N=C3\CCCc4ccccc43)NC2=O)cc1` (stereo not given), which Potency is on record?
**A.** inconclusive [cytotoxic, single point]

**Q.** Which Potency does the source give for `Cc1cccc(NC(=O)c2ccc(C3SCC(=O)N3CCc3ccccc3)cc2)c1` (stereo not given) here?
**A.** inconclusive [cytotoxic, single point]

**Q.** With `CCNc1nc(NCC)n2c(SC(C(=O)Nc3cc(C)ccc3C)c3ccccc3)nnc2n1` (stereo not given) as the compound, how does the Potency read?
**A.** inconclusive [cytotoxic, single point]

**Q.** Which Potency does the source give for `c1c2c(cc3sc(N4CCOCC4)nc13)OCO2` here?
**A.** inconclusive [cytotoxic, single point]

**Q.** With `CCOc1ccc(N2C(=O)CC(n3ccc(C)n3)C2=O)cc1` (stereo not given) as the compound, how does the activity, negative = toxicity read?
**A.** inconclusive: 2.93% [cytotoxic]

**Q.** For `COc1ccc(NC(C)C(=O)Nc2ccc(C(C)(C)C)cc2)cc1Cl` (stereo not given), which Potency is on record?
**A.** inconclusive [cytotoxic, single point]

**Q.** With `Cc1ccc(S(=O)(=O)N[C@H](C(=O)OCC(=O)N2N=C(c3ccc(Cl)cc3)CC2c2ccco2)C(C)C)cc1` (stereo not given in full) as the compound, how does the “activity, negative = toxicity” value read?
**A.** inactive: -8.39%

**Q.** Which “activity, negative = toxicity” value does the source give for `Cc1noc(C)c1NC(=O)Nc1cccc2c1O[C@H](CN(C)C(=O)NC1CCCCC1)[C@@H](C)CN([C@H](C)CO)C2=O` here?
**A.** inactive: 5.89%

**Q.** For `C#CCOCCOCCOCCNc1nc(N2CCN(C(=O)CCCCCCCCCCNC(=O)[C@@H](CCSC)n3cc(CCO)nn3)CC2)nc(N2CCN(C(=O)CCCCCCCCCCNC(=O)[C@H](CO)n3cc(CCCCCN)nn3)CC2)n1`, which Potency is on record?
**A.** inconclusive [cytotoxic, single point]

**Q.** For `CCOC(=O)N1CCN(C(=O)C[C@@H]2C[C@@]3(C(=O)OCC)CCC=C3N(Cc3ccc(Cl)cc3Cl)C2=O)CC1`, which Potency is on record?
**A.** inconclusive [cytotoxic, single point]

**Q.** With `CC(=O)c1ccc(S(=O)(=O)Nc2ccc(C(=O)NCC(c3ccco3)N3CCCC3)cc2)cc1` (stereo not given) as the compound, how does the “activity, negative = toxicity” value read?
**A.** inactive: -1.99%

**Q.** For `Cc1nn(CC(=O)N2CCN(c3ccc(Cl)cc3)CC2)c(=O)c2cccn12`, which “activity, negative = toxicity” value is on record?
**A.** inactive: 0.578%

**Q.** Which Potency does the source give for `CCS(=O)(=O)Nc1cccc(C2=NN(S(=O)(=O)c3ccccc3)C(c3cccs3)C2)c1` (stereo not given) here?
**A.** inconclusive [cytotoxic, single point]

**Q.** Which Potency does the source give for `C#CCOCCOCCOCCNc1nc(N2CCN(C(=O)CCCCCCCCCCNC(=O)[C@@H](CCC(=O)O)n3cc(CCCCCN)nn3)CC2)nc(N2CCN(C(=O)CCCCCCCCCCNC(=O)[C@H](CCCCN)n3cc(C[C@@H](C)CC)nn3)CC2)n1` here?
**A.** inconclusive [cytotoxic, single point]

**Q.** Which Potency does the source give for `CNC(=S)N/N=C/c1ccc(-c2cccc(C(=O)O)c2)o1` here?
**A.** inconclusive [cytotoxic, single point]

**Q.** For `NC(N)=N/N=C/c1ccccc1Cl`, which Potency is on record?
**A.** inconclusive [cytotoxic, single point]

**Q.** Which Potency does the source give for `Cc1[nH]n(-c2ccc(Cl)cc2)c(=O)c1C(=O)c1ccccc1` here?
**A.** inconclusive [cytotoxic, single point]

**Q.** For `O=C(CNS(=O)(=O)c1cccc(Br)c1)NCC1CCCCC1`, which “activity, negative = toxicity” value is on record?
**A.** inactive: -1.75%

**Q.** Which “activity, negative = toxicity” value does the source give for `COc1ccc(S(=O)(=O)N2CCOCC2)cc1NC(=O)CN1CCCc2ccccc21` here?
**A.** inactive: 1.86%

**Q.** Which Potency does the source give for `COC(=O)c1cc(S(=O)(=O)n2nc(C)c(Br)c2C)c(Cl)cc1Cl` here?
**A.** inconclusive [cytotoxic, single point]

**Q.** With `CCOC(=O)C1(CCOc2ccccc2)CCN(Cc2cc(OC)cc(OC)c2)CC1` as the compound, how does the Potency read?
**A.** inconclusive [cytotoxic, single point]

**Q.** With `COc1ccc(N(CC(=O)N2CCN(c3ccc(Cl)cc3)CC2)S(=O)(=O)c2c(C)n[nH]c2C)cc1` as the compound, how does the Potency read?
**A.** inconclusive [cytotoxic, single point]

**Q.** For `COc1cccc(-n2c(SCC(N)=O)nc3c([nH]c4ccccc43)c2=O)c1`, which “activity, negative = toxicity” value is on record?
**A.** inactive: -29.3%

**Q.** With `C=CC[C@H](CC(=O)N(CCO)Cc1ccccc1)C(=O)N[C@H](COC(=O)[C@H](CC=C)CC(=O)OC(C)(C)C)Cc1c[nH]c2ccccc12` as the compound, how does the Potency read?
**A.** inconclusive [cytotoxic, single point]

**Q.** For `CC1(C(=O)NCc2ccccc2Br)CCN1C(=O)Cc1ccc(-c2ccccc2)cc1` (stereo not given), which Potency is on record?
**A.** inconclusive [cytotoxic, single point]

**Q.** For `COC(=O)C1=CN(c2c(C)cc(C)cc2C)C(N)=C(C#N)C1c1cccc(F)c1` (stereo not given), which Potency is on record?
**A.** inconclusive [cytotoxic, single point]

**Q.** With `Cc1ccc(N2C(=O)C3C4CC(=O)C(c5ccccc54)C3C2=O)cc1C` (stereo not given) as the compound, how does the “activity, negative = toxicity” value read?
**A.** inactive: -1.54%

**Q.** With `Cc1cc(C)nc(Nc2nc(C(N)Cc3ccc(C(F)(F)F)cc3)cs2)n1` (stereo not given) as the compound, how does the Potency read?
**A.** inconclusive [cytotoxic, single point]

**Q.** Which Potency does the source give for `Cc1ccc(-c2nnc(SCC(=O)Nc3ccccc3F)o2)cc1` here?
**A.** active: 20.6 µM

**Q.** For `COc1ccc(Cl)cc1Nc1nc(NCCO)nc(N2CCCC2)n1`, which Potency is on record?
**A.** inconclusive [cytotoxic, single point]

**Q.** Which Potency does the source give for `CCOc1ccc(S(=O)(=O)N2c3ccccc3CC2C)cc1` (stereo not given) here?
**A.** inconclusive [cytotoxic, full curve]

**Q.** For `CC(=O)c1ccc(NC(=O)CSc2nc(N)c3cc4c(nc3n2)CCCC4)cc1`, which Potency is on record?
**A.** inconclusive [cytotoxic, single point]

**Q.** Which “activity, negative = toxicity” value does the source give for `Cc1cc(Cl)ccc1OCCCC(=O)Nc1cccnc1` here?
**A.** inactive: -17.7%

**Q.** For `COc1ccc([C@@H]2[C@@H]3C(=O)N(C(C)(C)C)C(=O)[C@@H]3[C@]3(C)C(=O)N(c4cccc(Br)c4)C(=O)N23)cc1`, which “activity, negative = toxicity” value is on record?
**A.** inactive: -14.7%
